# Test results from the supplement of paper PMC4604168 (melanoma cell lines).
# The other results are listed elsewhere or left out. Most values come without repeats; read them as rough.
# System: LOXIMVI
# Assay: cell count relative to DMSO control; melanoma cells; higher = more viable cells
# Settings: library dose: standard library concentration; 72 h
# 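Also: cells treated in 1,536-well plates, then fixed and DAPI-stained, with nuclei counted from automated high-throughput microscope images.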
row,Structure (SMILES),cell count [%]
1,"CCCS(=O)(=O)Nc1ccc(F)c(C(=O)c2c[nH]c3ncc(Cl)cc23)c1F + COc1ccc2c(c1)CCC1C2CCC2(C)C(NCCCCCCN3C(=O)C=CC3=O)CCC12 [U73122] (first compound 0.4 µM, partner dose 2 µM)",101
2,"CCCS(=O)(=O)Nc1ccc(F)c(C(=O)c2c[nH]c3ncc(Cl)cc23)c1F + C#Cc1cccc(Nc2ncnc3cc(OCCOC)c(OCCOC)cc23)c1 [erlotinib] (first compound 0.4 µM, partner dose 4 µM)",93.3
3,"CS(=O)(=O)c1ccc(C(=O)Nc2ccc(Cl)c(-c3ccccn3)c2)c(Cl)c1 [vismodegib] + COc1ccc(Cl)c(Nc2nc3ccccc3nc2NS(=O)(=O)c2cccc(NC(=O)C(C)(C)N)c2)c1 [XL147] (first compound 5 µM, partner dose 4 µM)",79.2
4,"CS(=O)(=O)c1ccc(C(=O)Nc2ccc(Cl)c(-c3ccccn3)c2)c(Cl)c1 [vismodegib] + Cn1c(Nc2ccc(C(F)(F)F)cc2)nc2cc(Oc3ccnc(-c4ncc(C(F)(F)F)[nH]4)c3)ccc21 [CHIR265] (first compound 5 µM, partner dose 0.4 µM)",83
5,"C=C(c1ccc(C(=O)O)cc1)c1cc2c(cc1C)C(C)(C)CCC2(C)C [Bexarotene] + C=CCn1c(=O)c2cnc(Nc3ccc(N4CCN(C)CC4)cc3)nc2n1-c1cccc(C(C)(C)O)n1 [MK1775] (first compound 10 µM, partner dose 0.1 µM)",81.5
6,"CS(=O)(=O)c1ccc(C(=O)Nc2ccc(Cl)c(-c3ccccn3)c2)c(Cl)c1 [vismodegib] + Oc1cc(-c2nc(-c3ccccc3)[nH]c2-c2ccncc2)ccc1Cl [L779450] (first compound 5 µM, partner dose 1 µM)",154
7,"CN(c1ncccc1CNc1nc(Nc2ccc3c(c2)CC(=O)N3)ncc1C(F)(F)F)S(C)(=O)=O + C=C(c1ccc(C(=O)O)cc1)c1cc2c(cc1C)C(C)(C)CCC2(C)C [Bexarotene] (first compound 0.4 µM, partner dose 10 µM)",98.3
8,"CS(=O)(=O)c1ccc(C(=O)Nc2ccc(Cl)c(-c3ccccn3)c2)c(Cl)c1 [vismodegib] + O=C1NC(=O)/C(=C/c2ccc(-c3ccc(F)cc3O)o2)S1 [AS252424] (first compound 5 µM, partner dose 5 µM)",88.2
9,"NC1(c2ccc(-c3nc4ccn5c(=O)[nH]nc5c4cc3-c3ccccc3)cc2)CCC1 + CN(NC(=O)CC(=O)NN(C)C(=S)c1ccccc1)C(=S)c1ccccc1 [STA4783] (first compound 2 µM, partner dose 0.03 µM)",49.3
10,"CS(=O)(=O)c1ccc(C(=O)Nc2ccc(Cl)c(-c3ccccn3)c2)c(Cl)c1 [vismodegib] + NC1(c2ccc(-c3nc4ccn5c(=O)[nH]nc5c4cc3-c3ccccc3)cc2)CCC1 [MK2206] (first compound 5 µM, partner dose 2 µM)",94.7
11,"CN(c1ncccc1CNc1nc(Nc2ccc3c(c2)CC(=O)N3)ncc1C(F)(F)F)S(C)(=O)=O + O=C(CCCCCCC(=O)Nc1ccccc1)NO [vorinostat] (first compound 0.4 µM, partner dose 0.4 µM)",63.2
12,"CS(=O)(=O)c1ccc(C(=O)Nc2ccc(Cl)c(-c3ccccn3)c2)c(Cl)c1 [vismodegib] + Nc1ncn([C@H]2C[C@H](O)[C@@H](CO)O2)c(=O)n1 [decitabine] (first compound 5 µM, partner dose 0.5 µM)",111
13,"CN(c1ncccc1CNc1nc(Nc2ccc3c(c2)CC(=O)N3)ncc1C(F)(F)F)S(C)(=O)=O + O=C(Nc1cccc(Cl)c1)Nc1ncc(CCNc2ncnc3ccsc23)s1 [SNS314] (first compound 0.4 µM, partner dose 0.004 µM)",65.7
14,"C=C(c1ccc(C(=O)O)cc1)c1cc2c(cc1C)C(C)(C)CCC2(C)C [Bexarotene] + COc1ccc(-c2ccc3c(N4CCOCC4)nc(N4C[C@@H](C)O[C@@H](C)C4)nc3n2)cc1CO [KU0063794] (first compound 10 µM, partner dose 0.1 µM)",122
15,"C=C(c1ccc(C(=O)O)cc1)c1cc2c(cc1C)C(C)(C)CCC2(C)C [Bexarotene] + Cn1cncc1[C@@](N)(c1ccc(Cl)cc1)c1ccc2c(c1)c(-c1cccc(Cl)c1)cc(=O)n2C [tipifarnib] (first compound 10 µM, partner dose 0.05 µM)",102
